{"source": "the supplement of paper PMC4166925", "note": "± gives the standard deviation of the averaged measurements. In all, about 33,000 sequences were measured (“E-score (dimensionless, -0.5 to 0.5)”: median about -0.046, highest 2% from about 0.36 on). This is one part of the list."}
{"test_system": "T1, SpTbr T-box DNA-binding domain (GST fusion)", "T1 sequence": "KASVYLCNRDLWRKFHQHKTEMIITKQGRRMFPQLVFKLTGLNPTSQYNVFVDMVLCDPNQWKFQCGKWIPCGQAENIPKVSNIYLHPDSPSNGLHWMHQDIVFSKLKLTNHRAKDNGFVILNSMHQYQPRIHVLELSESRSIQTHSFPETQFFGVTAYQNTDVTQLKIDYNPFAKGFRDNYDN", "assay": "PBM E-score of 8-mer (E-score (dimensionless, -0.5 to 0.5)); Tbr is Tbrain of the sea star Patiria miniata (Pm) or the sea urchin Strongylocentrotus purpuratus (Sp); higher = stronger binding preference; most listed sequences are background and not binding sites", "conditions": "the construct has about 5 more residues each side", "procedure,_shortened": "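Primer extension turned Universal Agilent oligonucleotide arrays double-stranded. They were incubated with 200 nM protein in PBS (pH 7.5); the protein was a GST-fused Tbr T-box DNA-binding domain expressed in BL21 E. coli at 20 °C and purified on glutathione. Every ungapped 8-mer was scored from the scanned, quantified probe intensities, and the Universal PBM Analysis Suite gave each an enrichment E-score averaged over duplicate arrays.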"}
{"sequence": "AAGACCGC", "PBM E-score of 8-mer": "0.0751 ± 0.011"}
{"sequence": "ACCAACTA", "PBM E-score of 8-mer": "-0.043 ± 0.023"}
{"sequence": "TCCGGAGA", "PBM E-score of 8-mer": "-0.106 ± 0.094"}
{"sequence": "CATCATCG", "PBM E-score of 8-mer": "-0.00997 ± 0.002"}
{"sequence": "CCACCTAG", "PBM E-score of 8-mer": "0.183 ± 0.046"}
{"sequence": "AACTGGAC", "PBM E-score of 8-mer": "0.0345 ± 0.029"}
{"sequence": "ATACGCAA", "PBM E-score of 8-mer": "-0.0704 ± 0.069"}
{"sequence": "ACTGGGGA", "PBM E-score of 8-mer": "-0.0213 ± 0.078"}
{"sequence": "AGTCTTGA", "PBM E-score of 8-mer": "-0.0994 ± 0.071"}
{"sequence": "AAGAAGCG", "PBM E-score of 8-mer": "0.161 ± 0.022"}
{"sequence": "CGATTCAC", "PBM E-score of 8-mer": "0.262 ± 0.0081"}
{"sequence": "AGGACACG", "PBM E-score of 8-mer": "0.0227 ± 0.067"}
{"sequence": "AATTATCA", "PBM E-score of 8-mer": "0.0178 ± 0.079"}
{"sequence": "GAACGAGC", "PBM E-score of 8-mer": "-0.187 ± 0.063"}
{"sequence": "AGGGTCGC", "PBM E-score of 8-mer": "0.165 ± 0.069"}
{"sequence": "AATAAGCA", "PBM E-score of 8-mer": "-0.132 ± 0.012"}
{"sequence": "CCGGGCTC", "PBM E-score of 8-mer": "-0.245 ± 0.051"}
{"sequence": "ACGCCAAG", "PBM E-score of 8-mer": "0.152 ± 0.016"}
{"sequence": "GCGGGAAC", "PBM E-score of 8-mer": "0.154 ± 0.044"}
{"sequence": "GATGGTGA", "PBM E-score of 8-mer": "0.166 ± 0.016"}
{"sequence": "CCCACCAC", "PBM E-score of 8-mer": "-0.00552 ± 0.018"}
{"sequence": "AACCTCCA", "PBM E-score of 8-mer": "-0.135 ± 0.018"}
{"sequence": "GACTGCGA", "PBM E-score of 8-mer": "0.233 ± 0.014"}
{"sequence": "CTAACGTC", "PBM E-score of 8-mer": "-0.167 ± 0.075"}
{"sequence": "CGCTGGAG", "PBM E-score of 8-mer": "-0.131 ± 0.076"}
{"sequence": "CACGAACG", "PBM E-score of 8-mer": "0.209 ± 0.0028"}
{"sequence": "ACCGCCTG", "PBM E-score of 8-mer": "0.0532 ± 0.17"}
{"sequence": "ATCTACCA", "PBM E-score of 8-mer": "-0.109 ± 0.05"}
{"sequence": "GAGTGACA", "PBM E-score of 8-mer": "0.343 ± 0.033"}
{"sequence": "GAGGACTA", "PBM E-score of 8-mer": "-0.245 ± 0.032"}
{"sequence": "ATGCCTAA", "PBM E-score of 8-mer": "0.0456 ± 0.0037"}
{"sequence": "GCTGCTGA", "PBM E-score of 8-mer": "-0.0776 ± 0.019"}
{"sequence": "AGAAAGAA", "PBM E-score of 8-mer": "-0.3 ± 0.047"}
{"sequence": "AACCCCAG", "PBM E-score of 8-mer": "-0.409 ± 0.028"}
{"sequence": "AACTGCGA", "PBM E-score of 8-mer": "0.3505 ± 0.00075"}
{"sequence": "ATTTTTCC", "PBM E-score of 8-mer": "-0.0034 ± 0.048"}
{"sequence": "CTGGAAGA", "PBM E-score of 8-mer": "-0.226 ± 0.031"}
{"sequence": "AACCCCCG", "PBM E-score of 8-mer": "0.0678 ± 0.0062"}
{"sequence": "TAGATAGA", "PBM E-score of 8-mer": "-0.172 ± 0.026"}
{"sequence": "TCATTCGA", "PBM E-score of 8-mer": "-0.131 ± 0.047"}
{"sequence": "CCAACGCC", "PBM E-score of 8-mer": "0.209 ± 0.035"}
{"sequence": "ATTGCAAC", "PBM E-score of 8-mer": "-0.00473 ± 0.1"}
{"sequence": "AAACCGGG", "PBM E-score of 8-mer": "-0.0969 ± 0.033"}
{"sequence": "CAAGCTGG", "PBM E-score of 8-mer": "0.165 ± 0.064"}
{"sequence": "CTAGTTCA", "PBM E-score of 8-mer": "0.0716 ± 0.0071"}
{"sequence": "AGGGATAG", "PBM E-score of 8-mer": "-0.249 ± 0.047"}
{"sequence": "AGATCGGC", "PBM E-score of 8-mer": "-0.216 ± 0.086"}
{"sequence": "TACTGATA", "PBM E-score of 8-mer": "-0.132 ± 0.053"}
{"sequence": "AGTCACAC", "PBM E-score of 8-mer": "0.457 ± 0.0049"}
{"sequence": "CTTTTTGC", "PBM E-score of 8-mer": "-0.00587 ± 0.064"}
{"sequence": "AGATGTAG", "PBM E-score of 8-mer": "-0.216 ± 0.055"}
{"sequence": "ATTTAGAC", "PBM E-score of 8-mer": "-0.135 ± 0.03"}
{"sequence": "GCGCGTAA", "PBM E-score of 8-mer": "0.229 ± 0.035"}
{"sequence": "AAAGAACC", "PBM E-score of 8-mer": "-0.141 ± 0.034"}
{"sequence": "GCAGCGTA", "PBM E-score of 8-mer": "-0.0308 ± 0.041"}
{"sequence": "AAAGGCCT", "PBM E-score of 8-mer": "-0.199 ± 0.026"}
{"sequence": "AACTTTCA", "PBM E-score of 8-mer": "-0.00941 ± 0.039"}
{"sequence": "GCTCTCCA", "PBM E-score of 8-mer": "-0.0369 ± 0.0074"}
{"sequence": "CTGACCGA", "PBM E-score of 8-mer": "-0.122 ± 0.11"}
{"sequence": "ACGGAGAC", "PBM E-score of 8-mer": "-0.153 ± 0.02"}
{"sequence": "GCTAGCGA", "PBM E-score of 8-mer": "0.156 ± 0.022"}
{"sequence": "ACAAAGCG", "PBM E-score of 8-mer": "0.116 ± 0.0068"}
{"sequence": "GATTAACA", "PBM E-score of 8-mer": "0.295 ± 0.037"}
{"sequence": "ACCGAACC", "PBM E-score of 8-mer": "-0.0373 ± 0.023"}
{"sequence": "ATGCTAGA", "PBM E-score of 8-mer": "-0.161 ± 0.01"}
{"sequence": "GGCGTATA", "PBM E-score of 8-mer": "0.0846 ± 0.081"}
{"sequence": "AAGTTATA", "PBM E-score of 8-mer": "0.131 ± 0.023"}
{"sequence": "ACAGCCGT", "PBM E-score of 8-mer": "0.101 ± 0.05"}
{"sequence": "CGTAGGAA", "PBM E-score of 8-mer": "-0.00351 ± 0.079"}
{"sequence": "ATTAGCAG", "PBM E-score of 8-mer": "0.0716 ± 0.046"}
{"sequence": "AGTTTCGA", "PBM E-score of 8-mer": "-0.271 ± 0.053"}
{"sequence": "CCATTGGC", "PBM E-score of 8-mer": "-0.0911 ± 0.064"}
{"sequence": "TCATTAGA", "PBM E-score of 8-mer": "-0.165 ± 0.049"}
{"sequence": "AGACCTGG", "PBM E-score of 8-mer": "-0.344 ± 0.024"}
{"sequence": "ATTACTAC", "PBM E-score of 8-mer": "-0.128 ± 0.0091"}
{"sequence": "TCGCGCCA", "PBM E-score of 8-mer": "0.384 ± 0.009"}
{"sequence": "ATGGATGG", "PBM E-score of 8-mer": "-0.312 ± 0.036"}
{"sequence": "CGGCTCGA", "PBM E-score of 8-mer": "0.0256 ± 0.046"}
{"sequence": "ATTACCGG", "PBM E-score of 8-mer": "-0.104 ± 0.0043"}
{"sequence": "TCTAGTAA", "PBM E-score of 8-mer": "-0.189 ± 0.083"}
{"sequence": "CATCCTGG", "PBM E-score of 8-mer": "-0.0597 ± 0.01"}
{"sequence": "ACTCGGGC", "PBM E-score of 8-mer": "-0.179 ± 0.093"}
{"sequence": "ATTTCCCC", "PBM E-score of 8-mer": "-0.118 ± 0.0099"}
{"sequence": "GATGCACA", "PBM E-score of 8-mer": "0.077 ± 0.0073"}
{"sequence": "GTTGTCGA", "PBM E-score of 8-mer": "0.271 ± 0.0066"}
{"sequence": "ATGATGTA", "PBM E-score of 8-mer": "-0.12 ± 0.017"}
